Source: the supplement of paper PMC9446081
About 220 (0.56%) of roughly 39,000 compounds showed activity. Some of the results follow.

test system: Escherichia coli K-12 BW25113; test: relative growth (OD600 normalised to plate interquartile mean) (fraction); higher = less growth inhibition, active = 0.2 or less; settings: 50 µM; LB; incubation time: overnight (16-24 h)
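Note: static incubation at 37 °C against the wild-type strain, values averaged over two biological replicates.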

Row | SMILES | relative growth
1 | CC(C)C#Cc1ccc2c(c1)O[C@H](CN(C)C(=O)c1cnccn1)[C@@H](C)CN([C@H](C)CO)S2(=O)=O | inactive: 0.979
2 | CCS(=O)(=O)Nc1ccc2c(c1)C(=O)N(C)[C@@H]1CC[C@H](CC(=O)NCc3ccccc3F)O[C@@H]1CO2 | inactive: 1
3 | CC(C)(C)NC[C@@H](O)c1ccc(O)c(CO)c1.CC(C)(C)NC[C@@H](O)c1ccc(O)c(CO)c1.O=S(=O)(O)O | inactive: 1.03
4 | CC(C)NC(=O)Nc1ccc2c(c1)C(=O)N([C@H](C)CO)C[C@H](C)[C@@H](CN(C)C(=O)Nc1ccccc1)OCCCC[C@@H](C)O2 | inactive: 0.995
5 | C=CC[C@@H](CC(=O)N(CCO)Cc1ccccc1)C(=O)N[C@H](COC(=O)[C@@H](CC=C)Cc1ccc(F)cc1)C(C)(C)C | inactive: 1.05
6 | CC(CN(C)C)CN1c2ccccc2CCc2ccccc21.O=C(O)C=CC(=O)O (centres undefined) | inactive: 1.01
7 | CC1(O)CCC(C(C)(C)O)CC1.O (centres undefined) | inactive: 0.959
8 | COc1cc(C)c(C(=O)Oc2cc(C)c(C(=O)O)c(O)c2)c(O)c1 | inactive: 1.08
9 | C[C@@H]1CN([C@H](C)CO)C(=O)c2cc(C#Cc3ccccc3F)cnc2O[C@H]1CN(C)C(=O)c1ccc2c(c1)OCO2 | inactive: 0.999
10 | C[C@@H]1CN([C@@H](C)CO)C(=O)c2cc(NC(=O)c3ccncc3)ccc2O[C@H]1CN(C)S(=O)(=O)c1ccccc1 | inactive: 0.995
11 | Cc1noc(C)c1S(=O)(=O)Nc1ccc2c(c1)C(=O)N([C@H](C)CO)C[C@@H](C)[C@@H](CN(C)S(=O)(=O)c1c(C)noc1C)O2 | inactive: 1.02
12 | Cc1noc(C)c1S(=O)(=O)N(C)C[C@@H]1Oc2c(NS(=O)(=O)c3cccs3)cccc2C(=O)N([C@H](C)CO)C[C@@H]1C | inactive: 1.01
13 | O=C(O)c1cc(O)ccc1O | inactive: 0.959
14 | COc1ccc(S(=O)(=O)Nc2ccc3c(c2)C(=O)N([C@@H](C)CO)C[C@@H](C)[C@H](CN(C)C(=O)C2CCCCC2)OCCCC[C@H](C)O3)cc1 | inactive: 1.03
15 | C[C@@H]1CN([C@@H](C)CO)C(=O)Cc2cc(NC(=O)Nc3ccc4c(c3)OCO4)ccc2O[C@@H]1CN(C)Cc1ccc(C(F)(F)F)cc1 | inactive: 1.05
16 | C[C@H](CO)N1C[C@H](C)[C@H](CN(C)S(=O)(=O)c2ccc(Cl)cc2)Oc2ccc(NC(=O)Nc3cccc4ccccc34)cc2CC1=O | inactive: 1.02
17 | C[C@H](CO)N1C[C@H](C)[C@@H](CN(C)S(=O)(=O)c2cccs2)Oc2c(NC(=O)C3CC3)cccc2C1=O | inactive: 1.01
18 | CC(C)NC(=O)N(C)C[C@H]1Oc2ccc(NC(=O)CCC(F)(F)F)cc2CC(=O)N([C@H](C)CO)C[C@H]1C | inactive: 0.998
19 | O=C(N[C@H]1CC[C@H](CCn2cc(C3(O)CCCC3)nn2)O[C@@H]1CO)C1CCOCC1 | inactive: 0.981
20 | COc1cc2c(cc1OC)[C@@]13ON=C(c4ccc(OCCOC(=O)NCCCCCC(=O)NO)cc4)[C@@H]1CCN3CC2 | inactive: 0.962
21 | COc1ccc2c3c([nH]c2c1)[C@H](CO)N(C[C@]13CCN(CC1)Cc1ccccc1)C(=O)CN1CCOCC1 | inactive: 1.02
22 | C[C@H](CO)N1C[C@H](C)[C@H](CN(C)S(=O)(=O)c2ccc(F)cc2)Oc2ncc(C#CCN(C)C)cc2C1=O | inactive: 1.01

Row | SMILES | relative growth
23 | C[C@H](CO)N1C[C@H](C)[C@@H](CN(C)S(=O)(=O)c2cccs2)Oc2ccc(NC(=O)CCN3CCOCC3)cc2CC1=O | inactive: 1.01
24 | C[C@]12C[C@@H]3C[C@](C)(C1)C[C@@](N)(C3)C2 | inactive: 1.04
25 | C[C@@H]1CN([C@H](C)CO)C(=O)c2cc(C#CCc3ccccc3)cnc2O[C@H]1CN(C)C(=O)Cc1cccnc1 | inactive: 1.01
26 | C[C@@H]1CCCCO[C@H](CN(C)Cc2ccc3c(c2)OCO3)[C@H](C)CN([C@@H](C)CO)C(=O)c2cc(NC(=O)NC3CCCCC3)ccc2O1 | inactive: 1.01
27 | C[C@@H](N)c1cnn(-c2ccccc2F)c1 | inactive: 0.987
28 | COc1ccc(S(=O)(=O)Nc2ccc3c(c2)CC(=O)N([C@H](C)CO)C[C@H](C)[C@@H](CN(C)S(=O)(=O)c2ccc(C)cc2)O3)cc1 | inactive: 1.02
29 | C[C@H]1CN([C@@H](C)CO)C(=O)Cc2cc(NC(=O)CCCCCC(=O)Nc3ccccc3N)ccc2O[C@H]1CN(C)C(=O)Nc1ccc(F)cc1 | inactive: 0.996
30 | C[C@H]1CN([C@@H](C)CO)C(=O)Cc2cc(NC(=O)c3ccncc3)ccc2O[C@@H]1CN(C)S(=O)(=O)c1cn(C)cn1 | inactive: 0.994
31 | C[C@@H]1CCCCO[C@H](CN(C)C(=O)Nc2cccc3ccccc23)[C@@H](C)CN([C@@H](C)CO)C(=O)c2cc(NS(C)(=O)=O)ccc2O1 | inactive: 0.986
32 | CCCNC(=O)N(C)C[C@@H]1Oc2ncc(-c3ccc(C(=O)N(C)C)cc3)cc2C(=O)N([C@@H](C)CO)C[C@@H]1C | inactive: 1.01
33 | C[C@@H]1CCCCO[C@@H](CN(C)CC2CCCCC2)[C@H](C)CN([C@@H](C)CO)C(=O)c2cc(NC(=O)c3ccncc3)ccc2O1 | inactive: 1
34 | C[C@@H]1CN([C@H](C)CO)C(=O)c2cc(NC(=O)Cn3cnnn3)ccc2O[C@@H]1CN(C)S(=O)(=O)c1cccs1 | inactive: 1.04
35 | COCC(=O)N1C[C@]2(C1)CN([C@H](CO)c1c2c2ccc(cc2n1C)OC)C(=O)CN1CCOCC1 | inactive: 0.983
36 | N[C@H](CO)COCc1ccccc1 | inactive: 1
37 | C[C@@H]1CCCCO[C@H](CN(C)C(=O)Nc2ccc(C(F)(F)F)cc2)[C@H](C)CN([C@H](C)CO)C(=O)c2cc(NC(=O)c3ccncc3)ccc2O1 | inactive: 1.03
38 | O=C(C[C@H]1CC[C@@H]2[C@H](COC[C@@H](O)CN2S(=O)(=O)c2ccccc2)O1)N[C@H]1CCN(Cc2ccccc2)C1 | inactive: 0.998
39 | COc1ccc(S(=O)(=O)N(C)C[C@H]2Oc3ccc(NC(=O)CCC(F)(F)F)cc3CC(=O)N([C@H](C)CO)C[C@@H]2C)cc1 | inactive: 1
40 | C[C@H](CO)N1C[C@H](C)[C@H](CN(C)C(=O)c2ccccc2)Oc2cc(C#C[C@@H](C)O)ccc2S1(=O)=O | inactive: 0.992
41 | C[C@@H]1CN([C@@H](C)CO)C(=O)c2cc(NC(=O)NC3CCCCC3)ccc2O[C@@H](C)CCCCO[C@@H]1CN(C)S(=O)(=O)c1ccc(Cl)cc1 | inactive: 1.01
42 | O=c1occ(CO)c(O)c1CN1CCCCC1 | inactive: 0.997
43 | COc1cccc(OCc2ccc(Cn3nc(NC(=O)NCc4ccccc4OC)c4ccccc43)cc2)c1 | inactive: 1.03
44 | c1ccc(Cc2nn[nH]n2)cc1 | inactive: 0.983

Row | SMILES | relative growth
45 | O=C(CN1CCOCC1)NCC[C@@H]1CC[C@H](NS(=O)(=O)c2ccc(F)cc2)[C@@H](CO)O1 | inactive: 0.916
46 | C[C@@H]1CN([C@@H](C)CO)C(=O)c2cc(NC(=O)Nc3ccccc3)ccc2O[C@@H](C)CCCCO[C@H]1CN(C)Cc1ccccc1 | inactive: 0.982
47 | C[C@@H]1CN([C@@H](C)CO)C(=O)c2cc(NC(=O)Nc3ccccc3)ccc2O[C@@H]1CN(C)Cc1ccc(C(F)(F)F)cc1 | inactive: 0.99
48 | CNC1C(OC2OC(CO)C(N)C(O)C2O)OC2CC(N)C(OC3C(N)CC(N)C(O)C3O)OC2C1O.O=S(=O)(O)O (centres undefined) | inactive: 1.2
49 | COc1ccc(NC(=O)Nc2ccc3c(c2)C(=O)N([C@@H](C)CO)C[C@@H](C)[C@H](CN(C)CC2CCCCC2)OCCCC[C@H](C)O3)cc1 | inactive: 1.03
50 | COc1ccc(-c2cnc3c(c2)C(=O)N([C@H](C)CO)C[C@H](C)[C@H](CN(C)S(=O)(=O)c2cccc(F)c2)O3)cc1 | inactive: 1.03
51 | Cn1cnc(S(=O)(=O)N2CC[C@H]3NC(=O)C[C@H]32)c1 | inactive: 0.998
52 | COc1ccc(S(=O)(=O)N[C@@H](CNc2nc(C)nc(N3CCC(c4ccc5c(n4)NCCC5)CC3)c2C)C(=O)O)cc1 | inactive: 1.01
53 | CC(C)=CCOc1cc(C)cc2oc(=O)cc(-c3ccccc3)c12 | inactive: 0.972
54 | CC(CCC(=O)O)C1CCC2C3C(O)CC4CC(O)CCC4(C)C3CCC12C (centres undefined) | inactive: 1.01
55 | N#Cc1cccnc1N1CCCNC(=O)C1 | inactive: 0.943
56 | C[C@H](CO)N1C[C@H](C)[C@@H](CN(C)C(=O)Nc2cccc3ccccc23)Oc2ccc(NS(=O)(=O)c3ccc(F)cc3)cc2CC1=O | inactive: 1.04
57 | C[C@@H]1CN([C@@H](C)CO)C(=O)c2cc(NC(=O)c3ccncc3)ccc2O[C@@H](C)CCCCO[C@H]1CN(C)C(=O)NC1CCCCC1 | inactive: 0.983
58 | N[C@@H](Cc1c[nH]c2ccc(O)cc12)C(=O)O | inactive: 1
59 | Cc1noc(C)c1NC(=O)Nc1ccc2c(c1)C(=O)N([C@@H](C)CO)C[C@@H](C)[C@H](CN(C)CC1CC1)OCCCC[C@H](C)O2 | inactive: 1.02
60 | C[C@@H]1CCCCO[C@H](CN(C)CC2CC2)[C@H](C)CN([C@@H](C)CO)C(=O)c2cc(NC(=O)Nc3ccccc3)ccc2O1 | inactive: 1
61 | CC1COC2=C1C(=O)C(=O)c1c2ccc2c1CCCC2(C)C (centres undefined) | inactive: 1.04
62 | Cc1noc(C)c1NC(=O)Nc1ccc2c(c1)C(=O)N([C@H](C)CO)C[C@@H](C)[C@@H](CN(C)Cc1ccc(Cl)c(Cl)c1)OCCCC[C@H](C)O2 | inactive: 1.03
63 | CC(C)NC(=O)Nc1ccc2c(c1)CC(=O)N([C@@H](C)CO)C[C@@H](C)[C@@H](CN(C)Cc1ccc3c(c1)OCO3)O2 | inactive: 0.973
64 | C[C@H]1CN([C@@H](C)CO)S(=O)(=O)c2ccc(C#CC(C)(C)O)cc2O[C@H]1CN(C)Cc1ccccc1 | inactive: 1.01
